Two molecules from patent publication US20140093496A1 (Chugai, published 2014) can be followed below.

Assay [1] concerns the target T1, FcγRIIa type H extracellular domain with C-terminal His tag (human, UniProt P12318 34-217).
T1 construct: extracellular domain; also called FcγRIIa H; FcγRIIaH; not shown: His tag at the C terminus
T1 sequence (looked up): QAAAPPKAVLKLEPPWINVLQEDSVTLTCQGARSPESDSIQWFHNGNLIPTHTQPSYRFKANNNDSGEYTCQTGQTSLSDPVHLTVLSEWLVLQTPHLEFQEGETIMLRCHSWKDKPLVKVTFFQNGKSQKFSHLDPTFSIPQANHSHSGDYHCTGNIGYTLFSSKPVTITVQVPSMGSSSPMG
Briefly: SPR (Biacore T100), 2 µmol/L FcγR on captured antibody. The protocol:
(§1) HBS-EP+ (GE Healthcare) was used as the running buffer, and the measurement temperature was set to 25° C.

The target of assay [2] is T2, FcγRIIIa extracellular domain with C-terminal His tag (allotype not given) (human, UniProt P08637 part only).
T2 construct: extracellular domain; also called CD16A; not shown: His tag at the C terminus
The description is as above. The protocol:
as §1

The target in assay [3] is T1, FcγRIIa type H extracellular domain …. The assay can be described thus: SPR (Biacore T100), KD by Equation 2 from Req (weak binding). A general note: SPR reads the build-up and loss of mass on a sensor chip optically.
The target in assay [4] is T2, FcγRIIIa extracellular domain with …. The assay is described as above.
Assay [5] concerns the target T3, FcγRIa extracellular domain with C-terminal His tag (human, UniProt P12314 16-292).
T3 construct: whole entry named; also called FcgRIa; CD64A; not shown: His tag at the C terminus
The assay can be described thus: SPR (Biacore T100), antibody captured on Protein A, FcγR analyte, 1:1 Langmuir. The protocol: as §1

T2 sequence (P08637 17-208): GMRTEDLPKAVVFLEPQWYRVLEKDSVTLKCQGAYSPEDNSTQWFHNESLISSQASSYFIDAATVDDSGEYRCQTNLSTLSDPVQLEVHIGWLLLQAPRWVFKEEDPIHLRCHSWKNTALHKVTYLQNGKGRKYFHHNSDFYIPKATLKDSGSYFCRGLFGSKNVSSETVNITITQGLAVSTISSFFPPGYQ
T3 sequence (P12314 16-292): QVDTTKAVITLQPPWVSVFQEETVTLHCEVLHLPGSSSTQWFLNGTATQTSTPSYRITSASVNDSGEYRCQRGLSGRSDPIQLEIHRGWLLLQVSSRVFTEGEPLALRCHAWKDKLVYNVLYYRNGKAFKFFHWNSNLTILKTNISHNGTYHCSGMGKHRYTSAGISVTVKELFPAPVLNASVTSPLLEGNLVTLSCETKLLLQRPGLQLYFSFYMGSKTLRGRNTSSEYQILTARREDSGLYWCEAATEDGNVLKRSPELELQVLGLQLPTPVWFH

B1: IgG1-v1 (antibody)
heavy: QVQLQESGPGLVKPSETLSLTCAVSGHSISHDHAWSWVRQPPGEGLEWIGFISYSGITNYNPSLQGRVTISRDNSKNTLYLQMNSLRAEDTAVYYCARSLARTTAMDYWGEGTLVTVSS[here human IgG1 constant region with P238D (EU numbers) without letters]
light: DIQMTQSPSSLSASVGDRVTITCRASQDISSYLNWYQQKPGKAPKLLIYYTSRLHSGVPSRFSGSGSGTDFTFTISSLQPEDIATYYCQQGNTLPYTFGQGTKVEIKRTVAAPSVFIFPPSDEQLKSGTASVVCLLNNFYPREAKVQWKVDNALQSGNSQESVTEQDSKDSTYSLSSTLTLSKADYEKHKVYACEVTHQGLSSPVTKSFNRGEC
notes: IL6R-G1d with P238D (EU); also called IL6R-G1d-v1/IL6R-L; copies: 2 + 2
Take B1: the “amount of binding (Req)” value in assay [1] and in assay [2] was about 2.5 RU each time. Moreover, the values for the dissociation constant Kd in assay [3], in assay [4] and in assay [5] were 56 µM, 51 µM and 0.0073 µM, respectively.

B2: IgG1-v2 (antibody)
heavy: QVQLQESGPGLVKPSETLSLTCAVSGHSISHDHAWSWVRQPPGEGLEWIGFISYSGITNYNPSLQGRVTISRDNSKNTLYLQMNSLRAEDTAVYYCARSLARTTAMDYWGEGTLVTVSS[here human IgG1 constant region with L328E (EU numbers) without letters]
light: DIQMTQSPSSLSASVGDRVTITCRASQDISSYLNWYQQKPGKAPKLLIYYTSRLHSGVPSRFSGSGSGTDFTFTISSLQPEDIATYYCQQGNTLPYTFGQGTKVEIKRTVAAPSVFIFPPSDEQLKSGTASVVCLLNNFYPREAKVQWKVDNALQSGNSQESVTEQDSKDSTYSLSSTLTLSKADYEKHKVYACEVTHQGLSSPVTKSFNRGEC
notes: IL6R-G1d with L328E (EU); also called IL6R-G1d-v2/IL6R-L; copies: 2 + 2
With B2, the dissociation constant (Kd) – broadly, the equilibrium constant for the complex coming apart – in assay [5] was determined as 0.00046 µM.
